The results in this text go back to article PMC8904574.

By UniProt entry, the sequences of proteins in these tests, tags left out.
UniProt P50002: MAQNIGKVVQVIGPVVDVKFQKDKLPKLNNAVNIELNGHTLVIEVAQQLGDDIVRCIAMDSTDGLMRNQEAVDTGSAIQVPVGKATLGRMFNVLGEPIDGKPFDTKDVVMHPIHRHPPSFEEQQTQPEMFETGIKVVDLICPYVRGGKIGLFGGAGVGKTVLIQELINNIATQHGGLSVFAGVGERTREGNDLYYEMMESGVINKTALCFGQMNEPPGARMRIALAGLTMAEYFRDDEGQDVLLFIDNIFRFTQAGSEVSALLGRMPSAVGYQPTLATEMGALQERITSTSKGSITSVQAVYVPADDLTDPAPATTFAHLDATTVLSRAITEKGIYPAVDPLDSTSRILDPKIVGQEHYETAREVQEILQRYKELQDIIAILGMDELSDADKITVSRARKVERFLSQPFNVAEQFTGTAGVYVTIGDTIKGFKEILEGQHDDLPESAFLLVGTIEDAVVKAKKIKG
UniProt P50000: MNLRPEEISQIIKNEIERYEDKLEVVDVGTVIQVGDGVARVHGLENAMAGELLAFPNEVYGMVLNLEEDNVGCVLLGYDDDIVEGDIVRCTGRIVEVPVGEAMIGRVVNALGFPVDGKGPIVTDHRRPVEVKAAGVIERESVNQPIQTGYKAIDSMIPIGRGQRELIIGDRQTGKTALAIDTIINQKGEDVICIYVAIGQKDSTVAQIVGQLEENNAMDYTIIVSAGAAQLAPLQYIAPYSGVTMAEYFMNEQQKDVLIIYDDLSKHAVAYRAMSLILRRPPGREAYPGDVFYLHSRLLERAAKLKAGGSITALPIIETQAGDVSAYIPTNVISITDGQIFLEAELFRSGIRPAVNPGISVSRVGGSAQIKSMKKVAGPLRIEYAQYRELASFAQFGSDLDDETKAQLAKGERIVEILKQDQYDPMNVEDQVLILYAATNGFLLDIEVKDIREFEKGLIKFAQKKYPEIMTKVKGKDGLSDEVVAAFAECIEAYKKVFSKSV

No constants are given. Whether binding was seen depends on the method and setting. For some assays here: Binding seen in cells or lysates may run through a third protein. Some results given as binding are weak or reduced against the parent protein; the word gives no strength. Tags and fused reporters may be left off the sequences shown.

In experiment [1] the target is β-subunit of the F1 part of the Na+-F1FO-ATP synthase of Acetobacterium woodii, N-terminal His6 tag (Acetobacterium woodii) (UniProt P50002). Nature of the experiment: native MS; LILBID-MS; purified subunits incubated in 50 mM KPi, 200 mM NaCl, 2 mM ATP, 2 mM MgCl2, 10% glycerol, pH 7.4, 4 °C, 1 h; exchanged into 100 mM ammonium acetate, 2 mM ATP, 2 mM MgCl2, pH 7.4; both purified.

The target of experiment [2] is αβγ subcomplex seen in the in vitro assembly (Acetobacterium woodii) (UniProt P50000+P50002+P50005). The description is as above.
In experiment [3] the target is α-subunit of the F1 part of the Na+-F1FO-ATP synthase of Acetobacterium woodii, N-terminal StrepI tag (Acetobacterium woodii) (UniProt P50000). Described as above.
For experiment [4], the target named is T1, ε-subunit of the A. woodii F1 ATP synthase with His6 tag (Acetobacterium woodii) (UniProt P50009).
T1 sequence: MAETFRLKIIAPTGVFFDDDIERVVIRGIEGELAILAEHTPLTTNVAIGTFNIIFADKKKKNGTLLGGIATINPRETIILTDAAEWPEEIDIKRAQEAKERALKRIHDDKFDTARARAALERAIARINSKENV
Description: pull-down + native MS; subunits co-expressed in E. coli, complex co-purified by affinity chromatography (Ni-NTA) and SEC, analysed by LILBID-MS and SDS-PAGE.

Experiment [5] deals with β-subunit of the F1 part of the Na+-F1FO-ATP synthase of Acetobacterium woodii, N-terminal His6 tag (Acetobacterium woodii) (UniProt P50002). The description is as above.

B1: δ-subunit of the F1 part of the Na+-F1FO-ATP synthase of Acetobacterium woodii, C-terminal His6 tag (protein, UniProt Q9RMB3 1-180)
chain: MSLVASKYARALFDVAVDKDQLDEIFSDFKTATDLFSSEKKFMDLMLTPSLNTGEKKGILMRSLESLSNQYVKNYLMILMDKNRFEDIFDIYEAFRKLCNEHKNLVEARVLTVIPLDETLRIALEENLAKRFNKKVILENEIDKSILGGAVVYVGDQIIDGSIKNQLSQMKKQVNNLRLH
For B1, the binding result in experiment [1], in experiment [2] and in experiment [3] was “no binding” throughout.

B2: γ-subunit of the A. woodii F1 ATP synthase (untagged, only obtained co-expressed with other subunits) (protein, UniProt P50005 1-302)
chain: MAENVQDIKRRIKSVNSTMQITHAMELVASAKLRKSRELAEGRRPYFEAMIESIGRIVEKSGNARNIFMDQREVKKTAYIIITGDKGLAGGYNVNVAKLVEEHITDKENAVLFTVGSRGRDHFRNREYHIQGEYLGISERPNFFNAKEVTAIVMEGFKNGEYDEVYIAYTKFVSTITQHAQMMKLLPLSAEELITSGKVKTTEETKEEKSKMSDRELTIMTYEPEPEELLKYLIPNFVSSTVYGSMIESAASEQGARRTAMESATTNANEMIDGLTLQYNRVRQAAITQEISEIVGGAEALN
As to B2, the binding result in experiment [4] is “binds weakly”; in experiment [5], “binds”.
